In the supplement of paper PMC8728848:
The other results are listed elsewhere or left out.

Tests used:
Experiment in all cases: glycan array binding signal (z-score within array); higher = stronger binding
Settings in all cases: glycan notation: IUPAC condensed, linker removed
[1] = molecular target: Gal(b1-4)GlcNAc(b1-3)Gal(b1-4)GlcNAc(b1-3)Gal(b1-4)GlcNAc(b1-3)Gal(b1-4)GlcNAc(b1-2)Man(a1-3)[Gal(b1-4)GlcNAc(b1-3)Gal(b1-4)GlcNAc(b1-3)Gal(b1-4)GlcNAc(b1-3)Gal(b1-4)GlcNAc(b1-2)Man(a1-6)]Man(b1-4)GlcNAc(b1-4)[Fuc(a1-6)]GlcNAc
Summary of the method: (§1)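 Negative Z-scores can be read as non-binding. The Z-score is calculated within each array and then averaged across arrays of one protein sequence at different concentrations or buffers and across linkers. Arrays, 3228 in all, were curated from the Consortium for Functional Glycomics database and kept only where the protein sequence was available.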

[2] = molecular target: Gal(b1-4)GlcNAc(b1-3)Gal(b1-4)GlcNAc(b1-3)Gal(b1-4)GlcNAc(b1-3)Gal(b1-4)GlcNAc(b1-2)[Gal(b1-4)GlcNAc(b1-3)Gal(b1-4)GlcNAc(b1-3)Gal(b1-4)GlcNAc(b1-3)Gal(b1-4)GlcNAc(b1-6)]Man(a1-6)[Gal(b1-4)GlcNAc(b1-3)Gal(b1-4)GlcNAc(b1-3)Gal(b1-4)GlcNAc(b1-3)Gal(b1-4)GlcNAc(b1-2)Man(a1-3)]Man(b1-4)GlcNAc(b1-4)[Fuc(a1-6)]GlcNAc
Summary of the method: as §1

[3] = molecular target: Gal(b1-4)GlcNAc(b1-3)Gal(b1-4)GlcNAc(b1-3)Gal(b1-4)GlcNAc(b1-3)Gal(b1-4)GlcNAc(b1-3)Gal(b1-4)GlcNAc(b1-2)Man(a1-3)[Gal(b1-4)GlcNAc(b1-3)Gal(b1-4)GlcNAc(b1-3)Gal(b1-4)GlcNAc(b1-3)Gal(b1-4)GlcNAc(b1-3)Gal(b1-4)GlcNAc(b1-2)Man(a1-6)]Man(b1-4)GlcNAc(b1-4)GlcNAc
Summary of the method: as §1

[4] = molecular target: Gal(b1-4)GlcNAc(b1-3)Gal(b1-4)GlcNAc(b1-3)Gal(b1-4)GlcNAc(b1-3)Gal(b1-4)GlcNAc(b1-3)Gal(b1-4)GlcNAc(b1-2)Man(a1-3)[Gal(b1-4)GlcNAc(b1-3)Gal(b1-4)GlcNAc(b1-3)Gal(b1-4)GlcNAc(b1-3)Gal(b1-4)GlcNAc(b1-3)Gal(b1-4)GlcNAc(b1-2)Man(a1-6)]Man(b1-4)GlcNAc(b1-4)[Fuc(a1-6)]GlcNAc
Summary of the method: as §1

[5] = molecular target: Gal(b1-4)GlcNAc(b1-3)Gal(b1-4)GlcNAc(b1-3)Gal(b1-4)GlcNAc(b1-3)Gal(b1-4)GlcNAc(b1-3)Gal(b1-4)GlcNAc(b1-2)[Gal(b1-4)GlcNAc(b1-3)Gal(b1-4)GlcNAc(b1-3)Gal(b1-4)GlcNAc(b1-3)Gal(b1-4)GlcNAc(b1-3)Gal(b1-4)GlcNAc(b1-6)]Man(a1-6)[Gal(b1-4)GlcNAc(b1-3)Gal(b1-4)GlcNAc(b1-3)Gal(b1-4)GlcNAc(b1-3)Gal(b1-4)GlcNAc(b1-3)Gal(b1-4)GlcNAc(b1-2)Man(a1-3)]Man(b1-4)GlcNAc(b1-4)[Fuc(a1-6)]GlcNAc
Summary of the method: as §1

[6] = molecular target: Gal(b1-4)GlcNAc(b1-3)Gal(b1-4)GlcNAc(b1-3)Gal(b1-4)GlcNAc(b1-3)Gal(b1-4)GlcNAc(b1-3)Gal(b1-4)GlcNAc(b1-3)Gal(b1-4)GlcNAc(b1-2)Man(a1-3)[Gal(b1-4)GlcNAc(b1-3)Gal(b1-4)GlcNAc(b1-3)Gal(b1-4)GlcNAc(b1-3)Gal(b1-4)GlcNAc(b1-3)Gal(b1-4)GlcNAc(b1-3)Gal(b1-4)GlcNAc(b1-2)Man(a1-6)]Man(b1-4)GlcNAc(b1-4)GlcNAc
Summary of the method: as §1

[7] = molecular target: Gal(b1-4)GlcNAc(b1-3)Gal(b1-4)GlcNAc(b1-3)GalNAc
Summary of the method: as §1

[8] = molecular target: Gal(b1-4)GlcNAc(b1-3)Gal(b1-4)GlcNAc(b1-3)[Gal(b1-4)GlcNAc(b1-3)Gal(b1-4)GlcNAc(b1-6)]GalNAc
Summary of the method: as §1

[9] = molecular target: Gal(b1-4)GlcNAc(b1-3)Gal(b1-4)GlcNAc(b1-6)[Gal(b1-3)]GalNAc
Summary of the method: as §1

[10] = molecular target: Gal(b1-4)GlcNAc(b1-3)Gal(b1-4)[Fuc(a1-3)]GlcNAc(b1-3)Gal(b1-4)[Fuc(a1-3)]GlcNAc
Summary of the method: as §1

[11] = molecular target: Gal(b1-4)GlcNAc(b1-3)GalNAc
Summary of the method: as §1

[12] = molecular target: Gal(b1-4)GlcNAc(b1-3)[Fuc(a1-3)GlcNAc(b1-6)]Gal(b1-4)Glc
Summary of the method: as §1

[13] = molecular target: Gal(b1-4)GlcNAc(b1-3)[Gal(b1-4)GlcNAc(b1-6)]Gal(b1-4)GlcNAc
Summary of the method: as §1

[14] = molecular target: Gal(b1-4)GlcNAc(b1-3)[GlcNAc(b1-6)]Gal(b1-4)GlcNAc
Summary of the method: as §1

[15] = molecular target: Gal(b1-4)GlcNAc(b1-6)Gal(b1-4)GlcNAc
Summary of the method: as §1

[16] = molecular target: Gal(b1-4)GlcNAc(b1-6)GalNAc
Summary of the method: as §1

[17] = molecular target: Gal(b1-4)GlcNAc(b1-6)[Gal(b1-3)]GalNAc
Summary of the method: as §1

[18] = molecular target: Gal(b1-4)GlcNAc(b1-6)[Gal(b1-4)GlcNAc(b1-3)]GalNAc
Summary of the method: as §1

Gal(b1-4)GlcNAc6P = molecular target: Gal(b1-4)GlcNAc6P
Summary of the method: as §1

B1: B725 (Bifidobacterium sp) (protein)
chain: MNNTTRAVIATAAIGALLIPLAGCGNTTTSSGKTELTVWSWDASIDRAAKSFMKANPDITVKVSNVGSTEETYTALNNAAQAGSGLPDVTLIEYLAIPQFVHSDTLMDLSKVYNTAKLKDTFTPGTWNSVNINGGLYAMPADSGPMAYFYDKDVFDKAGISEPPTTWDEFYEDAKKIRATGSYITSDSGDAGLFNAMMWAMGGHAYKLNDDKLTINIAKDKGAQRFMDLWQKMRDEDLIDVHTKTWTDDWMKSLGDGSIASLISGAWMANNLLQGVPQATGKFRVALLPTIDGTPINGEYGGSGLAITKKIPDGKLDAAKKFVEYVTTNDEGIDARVSNGSFPATTKTLNQKDFLAKTTLRNTDGSDNEFFGGQKYNEIFSQAAKDVTGKWEFLPFEPYARSVYNDNMGSFFAGKTSFRTAADNWQKALKDYAKDQGFTVQ
glycan array binding signal (z-score) [1]: 4.85
glycan array binding signal (z-score) [2]: 6.73
glycan array binding signal (z-score) [3]: 2.12
glycan array binding signal (z-score) [4]: 4
glycan array binding signal (z-score) [5]: 5.49
glycan array binding signal (z-score) [6]: 8.21
glycan array binding signal (z-score) [7]: 0.618
glycan array binding signal (z-score) [8]: 1.47
glycan array binding signal (z-score) [9]: 0.746
glycan array binding signal (z-score) [10]: 2.62
glycan array binding signal (z-score) [11]: 0.358
glycan array binding signal (z-score) [12]: -0.187
glycan array binding signal (z-score) [13]: -0.233
glycan array binding signal (z-score) [14]: -0.231
glycan array binding signal (z-score) [15]: -0.093
glycan array binding signal (z-score) [16]: -0.178
glycan array binding signal (z-score) [17]: -0.203
glycan array binding signal (z-score) [18]: -0.212
glycan array binding signal (z-score) (Gal(b1-4)GlcNAc6P): -0.222
